According to paper PMC4336329 (PLoS ONE, 2015):
Screen size: about 310,000 compounds; about 14,000 (4.5%) showed an effect of 50% or more. Effects have a minus sign here. The list shows a part of the results.

These compounds were tested against human ether-à-go-go-related gene (hERG) potassium channel (human, UniProt Q12809) (assay: primary screen, population patch clamp on CHO cells stably expressing hERG).
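Also: peak tail current of the secondary pulse compared with the same well before compound.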

human ether-à-go-go-related gene (hERG) potassium channel, sequence (Q12809 whole entry, looked up): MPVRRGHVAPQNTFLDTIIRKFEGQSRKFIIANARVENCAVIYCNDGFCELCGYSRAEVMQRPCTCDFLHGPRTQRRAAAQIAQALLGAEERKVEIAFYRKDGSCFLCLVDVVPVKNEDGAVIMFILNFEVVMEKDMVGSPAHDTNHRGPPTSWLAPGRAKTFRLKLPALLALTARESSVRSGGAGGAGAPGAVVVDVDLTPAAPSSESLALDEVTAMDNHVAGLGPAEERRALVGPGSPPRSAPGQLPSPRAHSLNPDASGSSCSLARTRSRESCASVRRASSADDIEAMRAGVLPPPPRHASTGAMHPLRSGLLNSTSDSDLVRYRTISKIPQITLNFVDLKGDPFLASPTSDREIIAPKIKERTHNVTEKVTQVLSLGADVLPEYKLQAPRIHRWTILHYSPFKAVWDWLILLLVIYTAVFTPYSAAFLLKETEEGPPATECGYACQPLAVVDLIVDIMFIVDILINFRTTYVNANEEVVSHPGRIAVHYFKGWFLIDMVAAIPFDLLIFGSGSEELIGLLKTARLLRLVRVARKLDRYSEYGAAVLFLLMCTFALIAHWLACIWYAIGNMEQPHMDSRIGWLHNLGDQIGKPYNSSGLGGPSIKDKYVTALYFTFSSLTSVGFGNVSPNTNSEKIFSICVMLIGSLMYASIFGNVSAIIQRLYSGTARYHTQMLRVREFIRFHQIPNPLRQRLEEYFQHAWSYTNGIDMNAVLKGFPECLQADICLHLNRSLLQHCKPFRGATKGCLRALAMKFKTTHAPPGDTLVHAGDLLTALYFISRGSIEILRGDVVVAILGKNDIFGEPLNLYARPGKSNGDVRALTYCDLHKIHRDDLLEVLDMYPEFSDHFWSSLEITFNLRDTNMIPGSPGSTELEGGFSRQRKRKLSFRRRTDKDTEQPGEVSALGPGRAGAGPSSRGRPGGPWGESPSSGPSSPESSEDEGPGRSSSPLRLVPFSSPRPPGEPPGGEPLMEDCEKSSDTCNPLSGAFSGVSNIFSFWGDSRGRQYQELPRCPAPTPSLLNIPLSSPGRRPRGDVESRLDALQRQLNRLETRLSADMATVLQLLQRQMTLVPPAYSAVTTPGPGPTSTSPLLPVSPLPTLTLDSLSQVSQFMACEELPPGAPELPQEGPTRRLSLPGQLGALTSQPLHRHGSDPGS

| SMILES | hERG current change (%, negative = inhibition) at 10uM [%] |
| --- | --- |
| CN(C)CCNC(=O)Nc1ccc(Cl)c(Cl)c1 | -23.4 |
| COc1ccccc1NC(=O)NC1CCCc2ccccc21 (centres unmarked) | 10.9 |
| CCCC1=NN2C(=N)/C(=C\c3cc(C)n(-c4cc(C)cc(C)c4)c3C)C(=O)N=C2S1 | -10.4 |
| COc1ccccc1NC(=O)CCN1C(=O)c2ccccc2S1(=O)=O | 6.41 |
| Cc1ccccc1NC(=O)CC1SC(=O)N(c2ccccc2)C1=O (centres unmarked) | 15.6 |
| Cc1ccc(OC(=O)c2sc3ncn(C)c(=O)c3c2C)cc1 | -0.804 |
| CSc1ccc(/C=N/Nc2nc(C)cc(=O)[nH]2)cc1 | -34.1 |
| Cc1cc(NC(=O)c2ccco2)ncc1NC(=O)Cc1ccccc1 | -14.4 |
| CC[C@@]1(c2ccccc2OC)ON(c2ccccc2C(F)(F)F)C1=O | 6.93 |
| C1COCCO1.O=C(Nc1nc(-c2ccc(S(=O)(=O)N3CCOCC3)cc2)cs1)c1ccccc1 | 1.09 |
| CCOc1ccc(Nc2nc(NCc3ccco3)nc(N)c2[N+](=O)[O-])cc1 | 8 |
| O=C(c1ccco1)N1CCN(C(=O)C(Sc2ccccc2)c2ccccc2)CC1 (centres unmarked) | -33.1 |
| CSCCC1NC(=O)N(CC(=O)Nc2ccc(Br)cc2Br)C1=O (centres unmarked) | -27.3 |
| CCOC(=O)N1CCN(S(=O)(=O)c2ccc3[nH]c(=O)sc3c2)CC1 | 2.33 |
| COC(=O)c1ccc(OCCOc2ccccc2C)cc1 | 5 |
| CCCOc1ccc(/C=C/C(=O)Nc2ccc([N+](=O)[O-])cc2)cc1 | 7.23 |
| COc1ccccc1NNC(=O)C(O)(c1ccccc1)c1ccccc1 | -0.163 |
| C=C(C)Cn1c(CCNC(=O)c2ccco2)nc2ccccc21 | -21.4 |
| O=C(CSc1ccccc1)OCC(=O)N1CCN(C(=O)c2ccco2)CC1 | -27 |
| CN(Cc1cn(C)nc1-c1ccccc1F)CC1CCN(Cc2ccccc2)CC1 | -15.6 |
| CCCS(=O)(=O)Nc1cccc(-c2nc3cccnc3s2)c1 | 9.28 |
| CCCN1C2CCCC1CC(NC(=O)C1CCCCC1)C2 (centres unmarked) | 2.01 |
| Cc1ccc(S(=O)(=O)NC(=O)Nc2nnc(C3CC3)s2)cc1 | -7.17 |

| SMILES | hERG current change (%, negative = inhibition) at 10uM [%] |
| --- | --- |
| COC(=O)COc1cccc(NC(=O)c2ccc(Cl)cc2)c1 | 0.783 |
| CC1C(=O)N2CCCc3cc(S(=O)(=O)N(C)c4ccccc4)cc1c32 (centres unmarked) | 6.6 |
| CCn1cc(C(=O)OCC(=O)NCc2ccc3c(c2)OCO3)c(=O)c2ccc(C)nc21 | -7.47 |
| Cc1ccc(NC(=O)CS(=O)CC(=O)NCCCN(C)c2ccccc2)cc1 (centres unmarked) | -2.26 |
| Cl.N=c1c2c(n(Cc3ccccc3)c3c1CCC3)CCC2 | -0.485 |
| CCOc1ccc(-c2ncncc2-c2ccc(OC)cc2)c(O)c1 | -19.3 |
| O=C(c1c(F)c(F)c(F)c(F)c1F)N1CCN(Cc2ccc3c(c2)OCO3)CC1 | 7.68 |
| CC(C)C[C@H](NC(=O)c1[nH]cnc1C(=O)N[C@@H](C)c1ccccc1)C(=O)OC(C)(C)C | 12.5 |
| CCOc1ccccc1N(CC(=O)Nc1ccc2c(c1)OCO2)S(C)(=O)=O | 1.48 |
| O=c1[nH]c2cc3c(cc2cc1C(c1nnnn1Cc1ccccc1)N1CCN2CCCC2C1)OCCO3 (centres unmarked) | -0.778 |
| O=S1(=O)CCN(Cc2ccccn2)CC1 | 0.269 |
| O=C1/C(=C/c2ccccc2)CSc2sccc21 | -16.1 |
| CC(C)Cc1nnc(NC(=O)CCC(=O)N2CCN(c3ccc(F)cc3)CC2)s1 | 1.08 |
| NS(=O)(=O)c1ccc(NC(=O)C2COc3ccccc3O2)cc1 (centres unmarked) | 0.967 |
| COc1ccc(S(=O)(=O)N2CCOC2CNC(=O)C(=O)NCc2ccccn2)cc1 (centres unmarked) | -7.6 |
| Cc1nc2ccccn2c1C(=O)N/N=C/c1ccccc1[N+](=O)[O-] | 2.26 |
| O=S(=O)(c1ccccc1)c1cnc(-c2cccnc2)nc1-c1ccc(Cl)cc1Cl | -6.25 |
| Cc1csc(NC(=O)c2cc[n+]([O-])cc2)n1 | -18.7 |
| COc1ccc2[nH]cc(CCNC(=O)C3CCCCC3)c2c1 | 9.26 |
| COc1cccc(Nc2c(Nc3cccc(OC)c3)c(=O)c2=O)c1 | 36.4 |
| N/C(=N\OC(=O)CCCc1ccccc1)c1cccc([N+](=O)[O-])c1 | -3.9 |
| CCc1cc2c(=O)[nH]c(N3CCOCC3)nc2s1 | -2.01 |
| CCC(C)c1ccccc1NC(=O)CN1CCN(C/C=C/c2ccccc2)CC1 (centres unmarked) | -60.4 |

| SMILES | hERG current change (%, negative = inhibition) at 10uM [%] |
| --- | --- |
| CCCCCCC(=O)Nc1c(O)c2ccccc2[nH]c1=O | 14.7 |
| O=C(O)Cn1nc(-c2ccccc2)oc1=O | -1.35 |
| CCOC(=O)N1CCN(CC(O)c2ccc3c(c2)CCN3)CC1 (centres unmarked) | 1.32 |
| COc1cccc(CNC(=O)CCc2nc3cc(S(=O)(=O)N4CCOCC4)ccc3n2C)c1 | 6.47 |
| CSc1ccccc1C(=O)N1CCN(S(=O)(=O)c2sc(C(=O)O)c(C)c2C(=O)O)CC1 | -2.5 |
| COc1ccc(OCCOC(=O)c2ccc(-n3cnnn3)cc2)cc1 | -15.9 |
| Cc1cc(NC(=O)COn2nnc3ccc(S(C)(=O)=O)cc32)ccc1Br | -25.6 |
| CCCCCCOc1ccc(N2C(=O)CC(N3CCN(C(=O)c4ccco4)CC3)C2=O)cc1 (centres unmarked) | -7.66 |
| CCN1c2ccccc2-c2nc3ccccc3n2C1c1ccco1 (centres unmarked) | -16.4 |
| NS(=O)(=O)c1cnccc1NCCc1ccccc1 | 9.56 |
| O=C(NNC(=O)c1ccc(Cl)cc1Cl)Nc1ccccc1 | 5.05 |
| COc1ccc(CNC(=O)NS(=O)(=O)c2ccc(C)cc2)cc1 | -8.46 |
| O=C(C1CCCCC1)N1CCN=C1SCc1cccc([N+](=O)[O-])c1 | -40.6 |
| Cc1cccc(C(C)C)c1NC(=O)C(C)OC(=O)Cc1n[nH]c(=O)c2ccccc12 (centres unmarked) | 10.1 |
| Cc1nn(CC(=O)Nc2ccc(Cl)cc2)c(=O)c2cc(-c3ccccc3)nn12 | 18 |
| COc1cc2cnc(-c3ccccc3)c(-c3ccc([N+](=O)[O-])cc3)c2cc1OC | 3.36 |
| COc1ccc(/C=N/NC(=O)c2sccc2C)c2ccccc12 | 15.7 |
| COc1ccccc1/C=C1\S/C(=N/NC(=O)c2cccc(Br)c2)NC1=O | 13.1 |
| Cc1ccc(-n2c(Cc3cccn3C)nnc2SCC(=O)NC2CCCCC2)cc1 | -29.9 |
| CC(C)CNc1nc(NC(C)(C)C)nc(Oc2ccc(=O)[nH]n2)n1 | 9.66 |
| Cc1cc(C)nc(NC(=S)Nc2ccccc2)n1 | 2.61 |
| O=C(Nc1cccc(S(=O)(=O)N2CCCCC2)c1)c1ccc2ncsc2c1 | -11.6 |
| CCC(CC)=NNc1ccc(S(N)(=O)=O)cc1[N+](=O)[O-] | -7.15 |

| SMILES | hERG current change (%, negative = inhibition) at 10uM [%] |
| --- | --- |
| CCOc1ccc(NC(=O)COc2ccc(S(=O)(=O)N3CCCC3)cc2)cc1 | 14.8 |
| CSc1ncccc1C(=O)OCc1ccc(Br)cc1 | 19.3 |
| COc1cc(OC)c2c(O)c3c(c(-c4c5c(c(O)c6c(OC)cc(OC)cc46)CO[C@@H](C)[C@H]5O)c2c1)[C@H](O)[C@H](C)OC3 | 7.77 |
| CCn1c(O)c(/C=N/n2cnnc2)sc1=S | -1.4 |
| COc1cc(-c2noc(C)n2)cc(OC)c1OC | 13.4 |
| COC(=O)c1c(NC(=O)c2nc3ccccc3s2)sc2c1CC(C)(C)NC2(C)C | -1.04 |
| CC(=O)Nc1nc(C)c(Oc2ccccc2)c(=O)[nH]1 | -1.89 |
| Cc1ccc(-c2nnn(CC(=O)N(CC3CCCO3)C(C(=O)NC3CCCC3)c3ccc(O)cc3)n2)o1 (centres unmarked) | 0.14 |
| CCn1cc(-c2cc(C(=O)O)c3ccccc3n2)cn1 | 27.3 |
| O=C(Nc1nnc2n1CCS2)c1ccco1 | 18.9 |
| COC(=O)CSc1nc2ncc(Cl)cc2[nH]1 | -10.3 |
| Cc1ccc(C(=O)Nc2ncccc2C)cc1S(=O)(=O)N1CCOCC1 | 1.75 |
| CCc1ccc(NC(=O)C2CC(=O)N(C(C)C)C2)cc1 (centres unmarked) | 7.1 |
| CCO.CCn1c(COc2ccc3c(c2)OCO3)nnc1SCC(=O)O | -0.394 |
| COc1ccccc1C1NC(=O)NC(C)=C1C(=O)OC1CCCCC1 (centres unmarked) | 6.66 |
| O=C(COC(=O)c1cncc(Br)c1)NCc1ccccc1Cl | 21.6 |
| COC(=O)C1=C(O)/C(=C\c2cc(C)n(-c3ccc(F)cc3)c2C)N=C1C | -25.5 |
| COC(=O)c1c(NC(=O)Cc2ccccc2)sc(C)c1C | 0.768 |
| CC(C)C(C)NC(=O)CN1C(=O)NC2(CCc3ccccc32)C1=O (centres unmarked) | 2.6 |
| CN(C)S(=O)(=O)c1ccc(C(=O)NCc2nc3ccccc3s2)cc1 | 1.24 |
